Among all 310,000 compounds or so, about 2,200 (0.71%) showed an effect of 50% or more. Effects have a minus sign here. This is one part of the list.

Chain of human ether-à-go-go-related gene (hERG) potassium channel (Q12809 whole entry, looked up): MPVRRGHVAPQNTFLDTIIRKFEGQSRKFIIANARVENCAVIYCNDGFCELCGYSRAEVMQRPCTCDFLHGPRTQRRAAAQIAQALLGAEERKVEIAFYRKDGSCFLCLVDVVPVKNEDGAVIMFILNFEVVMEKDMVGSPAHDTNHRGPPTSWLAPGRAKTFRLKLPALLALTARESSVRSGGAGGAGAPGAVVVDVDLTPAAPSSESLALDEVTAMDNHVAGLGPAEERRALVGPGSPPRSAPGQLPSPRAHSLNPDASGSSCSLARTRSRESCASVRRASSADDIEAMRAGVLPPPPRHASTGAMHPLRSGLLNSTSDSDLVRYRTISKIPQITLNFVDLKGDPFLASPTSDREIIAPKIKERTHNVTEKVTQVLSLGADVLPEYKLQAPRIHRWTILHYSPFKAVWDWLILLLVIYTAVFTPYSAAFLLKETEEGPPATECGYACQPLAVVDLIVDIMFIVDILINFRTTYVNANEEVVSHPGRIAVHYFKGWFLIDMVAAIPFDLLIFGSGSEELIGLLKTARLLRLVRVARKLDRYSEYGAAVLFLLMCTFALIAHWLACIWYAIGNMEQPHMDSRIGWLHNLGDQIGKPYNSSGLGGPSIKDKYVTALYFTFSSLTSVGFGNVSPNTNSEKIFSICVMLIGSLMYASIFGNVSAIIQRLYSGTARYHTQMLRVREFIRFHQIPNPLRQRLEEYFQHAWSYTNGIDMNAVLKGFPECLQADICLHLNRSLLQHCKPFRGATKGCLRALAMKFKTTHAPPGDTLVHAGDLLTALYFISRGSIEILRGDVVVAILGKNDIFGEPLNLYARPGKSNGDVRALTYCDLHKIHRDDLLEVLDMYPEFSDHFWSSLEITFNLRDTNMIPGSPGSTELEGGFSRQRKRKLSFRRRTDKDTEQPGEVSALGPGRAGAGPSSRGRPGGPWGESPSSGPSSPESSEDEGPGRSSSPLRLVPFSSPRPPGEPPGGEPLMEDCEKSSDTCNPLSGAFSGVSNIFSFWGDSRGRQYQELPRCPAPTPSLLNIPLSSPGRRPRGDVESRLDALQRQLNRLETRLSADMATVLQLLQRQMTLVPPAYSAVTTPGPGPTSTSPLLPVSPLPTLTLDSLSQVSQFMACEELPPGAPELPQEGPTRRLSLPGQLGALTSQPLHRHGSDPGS

This experiment addresses human ether-à-go-go-related gene (hERG) potassium channel (human, UniProt Q12809). In words: primary screen, population patch clamp on CHO cells stably expressing hERG.
On to `CC(C)Cc1nnc(NC(=O)C2=COCCO2)s1`, for which the “hERG current change (%, negative = inhibition) at 1uM” value is 30%. Next, `CC(=O)NC1=NN(C(C)=O)C(C)(CCS(=O)(=O)c2ccc(Cl)c(Cl)c2)S1` (stereo not drawn): 1.23%. As for `COc1cc(N=Cc2c(O)c3ccccc3oc2=O)c(OC)cc1Cl`, the figure is 13.1%; as for `COC(=O)c1c(C)oc(C)c1S(=O)(=O)NCc1ccc(OC)cc1`, 11.2%; as for `CCOc1ccc(C(=O)NCCN2CCOCC2)cc1`, 9.53%. On to `Cc1ccc(C(=O)OCC(=O)NCc2ccc3c(c2)OCO3)s1`, for which the “hERG current change (%, negative = inhibition) at 1uM” value is given as 1.35%. As for `O=C(NN=C1CCCCCC1)c1cccs1`, the figure is 10.2%. Next, `CCn1nc(C)c(C2C(C#N)=C(N)OC3=C2C(=O)CCC3)c1C` (stereo not drawn): 10.6%; `COc1cccc(C(=O)Nc2nnc(CCS(=O)(=O)c3ccc(C)cc3)s2)c1`: 19.8%. In the case of `Nc1cc(=O)[nH]c(SCC(=O)Nc2ccccc2Sc2ccc(Cl)cc2)n1`, the “hERG current change (%, negative = inhibition) at 1uM” value turned out to be 16.8%. As for `O=C(OCc1ccc(F)cc1)c1cc(=O)c2ccccc2o1`, the figure is 11.9%; as for `COc1ccc(CN2CCC(n3nccc3NC(=O)C3CC3)CC2)c(Cl)c1OC`, -2.09%; as for `COc1ccc(NS(=O)(=O)c2c(C)[nH]c(C)c2C(=O)N2CCCCC2)cc1Cl`, 5.53%.

On to `CC(Sc1nccn1C)C(=O)c1c(N)n(C)c(=O)n(C)c1=O` (stereo not drawn), for which the “hERG current change (%, negative = inhibition) at 1uM” value was found to be 17.8%.

For the molecule `COc1ccc(N(CC(=O)NCc2ccccc2)S(=O)(=O)c2c(C)n[nH]c2C)cc1`, the “hERG current change (%, negative = inhibition) at 1uM” value is 4.24%. Take `Nc1ccc(Cc2ccc(N)c(C(=O)O)c2)cc1C(=O)O`: the “hERG current change (%, negative = inhibition) at 1uM” value is listed as 21.6%.

With `COc1cc(S(=O)(=O)N2CCOCC2)ccc1NC(=O)COC(=O)C12CC3CC(CC(C3)C1)C2`, the “hERG current change (%, negative = inhibition) at 1uM” value was -4.67%. Next, `Cc1c(C)n(CCc2c[nH]c3ccccc23)ccc1=O`: 9.51%; `O=c1cc(CSc2ccc(Cl)cc2)[nH]c2[nH]n(-c3ccccc3)c(=O)c12`: 12.9%. As for `COc1ccc(C(c2c(C)n(C)n(-c3ccccc3)c2=O)c2c(C)n(C)n(-c3ccccc3)c2=O)c(OC)c1OC`, the figure is 22.4%. As for `CCOC(=O)NC(C)N1C(=O)C2C3C=CC(C3)C2C1=O` (stereo not drawn), the figure is 9.96%.

In the case of `NC(=O)c1cc2cc(Cc3ccccc3Cl)ccc2oc1=O`, the “hERG current change (%, negative = inhibition) at 1uM” value is given as 1.33%. Next, `COc1cc(-c2nn3c(C4CCCCC4)nnc3s2)cc(OC)c1OC`: 5.33%. Next, `CCCCOC(=O)C1=C(C)Nc2nnnn2C1c1ccccc1Cl` (stereo not drawn): 12.6%; `COC(=O)c1ccc(/C=N/NS(=O)(=O)c2cc(C)ccc2C)cc1`: 4.33%; `CCOc1ncccc1C(=O)Nc1ccc(C)c(S(=O)(=O)N2CCCCCC2)c1`: 5.54%. As for `COc1ccc(N(CC(=O)NCc2ccco2)S(=O)(=O)c2c(C)nn(C)c2C)cc1`, the figure is 15.3%; as for `CCOc1ccc2c(c1)c(=O)c(S(=O)(=O)c1ccc(C)cc1)cn2CC`, 7.16%; as for `COc1ccc(CCNC(=O)Cn2cnc3c(nnn3Cc3ccccc3F)c2=O)cc1OC`, 7.09%. Consider `Cc1nn(Cc2ccc(C(=O)N3CCN(C(=O)c4ccco4)CC3)o2)c(C)c1[N+](=O)[O-]`, for which the “hERG current change (%, negative = inhibition) at 1uM” value is recorded as -1.07%. In the case of `Cc1cc(Cl)ccc1OCC(=O)Nc1nc(-c2cccs2)cs1`, the “hERG current change (%, negative = inhibition) at 1uM” value was 18.2%. As to `CCc1c(C)[nH]c2ccc(C)cc2c1=O`, the “hERG current change (%, negative = inhibition) at 1uM” value amounted to 20.9%. As to `CC(C)C(NC(=O)C1CCCCC1)C(=O)NC1CCCC(C)C1C` (stereo not drawn), the “hERG current change (%, negative = inhibition) at 1uM” value came out at 15.2%.

In the case of `Cc1c(Cl)cccc1N1CC(C)(C)C1=O`, the “hERG current change (%, negative = inhibition) at 1uM” value is on record as -11.7%. As for `O=C1NC(c2ccccn2)Nc2sc3c(c21)CCC3` (stereo not drawn), the figure is 8.58%. Next, `COc1ccccc1NC(=O)CN(c1ccc(C)cc1)S(=O)(=O)c1c(C)n[nH]c1C`: 8.89%; `FC(F)(F)c1cccc(OCCN2CCN(Cc3ccccc3)CC2)c1.O=C(O)C(=O)O`: -3.24%; `Cc1ccc(CSc2cc(C)[nH]c(=O)n2)cc1`: 12%.

For the molecule `COc1ccc(OC)c(NC2=NC3(CCCC3)N=C(N)N2)c1`, the “hERG current change (%, negative = inhibition) at 1uM” value came out at 19.6%. As for `CCOc1ccc(NC(=O)NCCCSC2CCCCC2)cc1`, the figure is -0.541%; as for `COc1cccc(C(=O)NC(=S)N2CCN(c3ccc(C(F)(F)F)cc3[N+](=O)[O-])CC2)c1`, 11%. As for `CCC(C)NC(=O)Cn1c(=O)sc2ccccc21` (stereo not drawn), the figure is 10.9%; as for `O=C(c1cccs1)N1CCc2c([nH]c3ccccc23)C1c1ccc(Cl)cc1` (stereo not drawn), 7.24%; as for `Brc1ccccc1-n1nnc(-c2ccnc3ccccc23)n1`, 11.1%. Next, `Cc1cnc([N+](=O)[O-])n1CCOC(=O)c1cccc(F)c1`: 12.5%; `O=C(NC1CCS(=O)(=O)C1)/C(=C/c1ccco1)NC(=O)c1ccccc1` (stereo not drawn): 2.96%; `Cc1ccnc(NC(=S)NC(=O)/C=C/c2ccc(Cl)cc2)c1`: -6.66%. As to `COc1cc(C2C3=C(CC(C)(C)CC3=O)N(C)C3=C2C(=O)CC(C)(C)C3)cc(Br)c1O`, the “hERG current change (%, negative = inhibition) at 1uM” value is 13.8%. As for `O=C(c1ccc(N2CCCCS2(=O)=O)cc1)N1CCN(c2ccc(N3CCOCC3)nn2)CC1`, the figure is 15.9%; as for `Cc1ccc(NS(=O)(=O)c2ccc(C(=O)NCc3ccncc3)cc2)cc1`, 17.4%; as for `Cc1ccc(-n2c(SCC(=O)Nc3ccc(Cl)cc3)nc(O)cc2=O)cc1`, 7.52%. As for `Nc1cc2c(cc1O)CCCC2`, the figure is 16.1%; as for `CC1(C)NC(=O)N(CC(O)COc2ccccc2[N+](=O)[O-])C1=O` (stereo not drawn), 13.4%; as for `O=C1CC(N2CCCCCC2)C(=O)N1c1ccc(F)cc1` (stereo not drawn), 18.5%. As for `O=S(=O)(Nc1nc2ccc(Cl)cc2s1)c1cccs1`, the figure is 16.9%; as for `COc1cc2cc(CCCOC(=O)c3ccc(Br)cc3)oc(=O)c2cc1OC`, 11.4%. `O=C(OCCN1C(=O)c2ccccc2C1=O)c1cc(S(=O)(=O)N2CCOCC2)ccc1F`: the “hERG current change (%, negative = inhibition) at 1uM” value came out at 14.5%.

The record behind these values is PMC4336329 (PLoS ONE, 2015).
